The target in assay [1] is T1, PSMGFR peptide (Primary Sequence of the MUC1 Growth Factor Receptor).
T1 construct: Synthetic peptide; also called MUC1* peptide; MUC1* PSMGFR peptide
T1 peptide: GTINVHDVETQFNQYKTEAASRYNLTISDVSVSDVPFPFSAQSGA
Nature of the assay: ELISA on PSMGFR (FIG. 21A).

The target in assay [2] is T1, PSMGFR peptide (Primary Sequence of the …). Nature of the assay: ELISA on PSMGFR (FIG. 21B). Background: An ELISA detects its analyte on a solid surface through an enzyme-linked reagent.
Assay [3] shares this target. Put plainly: ELISA on immobilised peptide (FIG. 20).
In assay [4] the target is T2, PSMGFR minus 10 amino acids from the N-terminus.
T2 construct: also called N-10; N-10 PSMGFR
T2 peptide: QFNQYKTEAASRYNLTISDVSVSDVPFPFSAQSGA
Put plainly: ELISA on immobilised peptide (FIG. 20).

The target of assay [5] is T3, PSMGFR minus 10 amino acids from the C-terminus.
T3 construct: also called C-10; C-10 PSMGFR
T3 peptide: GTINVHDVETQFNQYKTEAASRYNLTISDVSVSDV
Nature of the assay: ELISA on immobilised C-10 peptide (FIG. 20).

Assay [6] concerns the target T1, PSMGFR peptide (Primary Sequence of the …). Put plainly: ELISA on PSMGFR (FIG. 21A, B).

This note sets out measurements from patent US20230183373A1 (MINERVA BIOTECHNOLOGIES, published 2023).

B1: hu MN-E6 scFv-Fc-Y407R (Fc fusion)
chain: EVQLVESGGGLVKPGGSLRLSCAASGFTFSRYGMSWVRQAPGKRLEWVSTISGGGTYIYYPDSVKGRFTISRDNAKNTLYLQMNSLRAEDTAVYYCTRDNYGRNYDYGMDYWGQGTLVTVSSGGGGSGGGGSGGGGSEIVLTQSPATLSLSPGERATLTCSATSSVSYIHWYQQRPGQSPRLLIYSTSNLASGIPARFSGSGSGSDYTLTISSLEPEDFAVYYCQQRSSSPFTFGSGTKVEIK[human IgG1 Fc with Y407R (EU numbers) not written out]
notes: It therefore also carries that construct's leader and the vector residues AAQPA before the scFv; The mutation favours monomer over dimer; also called humanized E6 scFV-Fc Y407R
Turning to B1, the binding result in assay [1] is recorded as “binds”.

B2: humanized MN-C3 scFv-Fc (Fc fusion)
chain: DAAQPAQVQLVQSGAEVKKPGASVKVSCKASGYTFTDYAMNWVRQAPGQGLEWMGVISTFSGNTNFNQKFKGRVTMTTDTSTSTAYMELRSLRSDDTAVYYCARSDYYGPYFDYWGQGTTLTVSSGGGGSGGGGSGGGGSDIVMTQTPLSLSVTPGQPASISCRSSQTIVHSNGNTYLEWYLQKPGQSPQLLIYKVSNRFSGVPDRFSGSGSGTDFTLKISRVEAEDVGVYYCFQGSHVPFTFGGGTKVEIKRT[human IgG1 Fc not written out]
notes: also called hu MN-C3 scFv-Fc; MN-C3 scFv-Fc fusion protein
Turning to B2, the binding result in assay [2] is “binds”.

B3: humanized MN-E6 scFv-Fc (wild type Fc) (Fc fusion)
chain: DAAQPAEVQLVESGGGLVKPGGSLRLSCAASGFTFSRYGMSWVRQAPGKRLEWVSTISGGGTYIYYPDSVKGRFTISRDNAKNTLYLQMNSLRAEDTAVYYCTRDNYGRNYDYGMDYWGQGTLVTVSSGGGGSGGGGSGGGGSEIVLTQSPATLSLSPGERATLTCSATSSVSYIHWYQQRPGQSPRLLIYSTSNLASGIPARFSGSGSGSDYTLTISSLEPEDFAVYYCQQRSSSPFTFGSGTKVEIK[human IgG1 Fc not written out]
notes: It was biotinylated for some tissue stainings; also called hu MN-E6 scFv-Fc; hu MN-E6 scFv-Fc-wt
Turning to B3, the results for the binding result in assay [3], in assay [4] and in assay [5] were “binds”, “binds” and “no binding”, respectively.

B4: hu MN-E6 scFv-Fc-hingeless (Fc fusion)
chain: EVQLVESGGGLVKPGGSLRLSCAASGFTFSRYGMSWVRQAPGKRLEWVSTISGGGTYIYYPDSVKGRFTISRDNAKNTLYLQMNSLRAEDTAVYYCTRDNYGRNYDYGMDYWGQGTLVTVSSGGGGSGGGGSGGGGSEIVLTQSPATLSLSPGERATLTCSATSSVSYIHWYQQRPGQSPRLLIYSTSNLASGIPARFSGSGSGSDYTLTISSLEPEDFAVYYCQQRSSSPFTFGSGTKVEIK[human IgG1 Fc not written out]
notes: It therefore also carries that construct's leader and the vector residues AAQPA before the scFv; also called humanized MN-E6 scFv-Fc-delta hinge; Dhinge
Regarding B4, the binding result in assay [6] is given as “binds”.
